# Source: PubChem BioAssay AID686979 (National Center for Advancing Translational Sciences (NCATS), 2013)
# Values joined by “and” are separate entries in the source; they are usually repeats but may differ in a detail not shown here. Equal values may be shown once. The whole screen tested about 420,000 compounds, of which about 50,000 (12%) were called active. Inconclusive means that the source gave no clear call. Such entries were picked first, then a sample of the others. The call rests on the fitted dose curve; in most records, active means well fitted inhibition curve with a large enough effect; inconclusive means small, poorly fitted or top-dose-only effect; inactive means flat fitted curve, though single readings scatter. A potency beside an inconclusive call is a rough fit, not a confirmed value.
# Assay: qHTS for Inhibitors of human tyrosyl-DNA phosphodiesterase 1 (TDP1): qHTS in cells in presence of CPT; further: nearly all actives have a fitted effect of over 55% in size
# Conditions: chicken DT40 Tdp1-/-;hTDP1 cells + 20 nM CPT, ATP luminescence, 48 h; activity change, negative = growth inhibition: at 46.2 µM (top of the series) unless noted
# Outline: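 Cell growth measured by CellTiter-Glo luminescence after a minimum 48 h, 37 C compound exposure with 20 nM CPT in Tdp1-knockout DT40 cells stably expressing hTDP1, seeded 400/well; qHTS titration format.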
# On the % scale 0 is the no-effect control and ±100 the full control effect; potency means the concentration at half of the fitted maximal effect; tags describe the fitted curve by direction and shape.
Structure (SMILES),Potency,"activity change, negative = growth inhibition"
CCOC(=O)c1c(CN(C)C)n(C)c2c(O)c(N=NC(N)=O)c3ccc(Br)cc3c12,"inconclusive: 18.4 µM [inhibitor, single point]",–
CC(=O)NC(c1ccc2ccccc2c1)c1ccc2cccnc2c1O (configuration not stated),active: 3.26 µM,–
COC(=O)CCC[C@H]1CC2(C[C@H](CCCO[Si](C)(C)C(C)(C)C)N1C(=O)OC(C)(C)C)OCCO2,"inconclusive: 29.1 µM [inhibitor, single point]",–
Cc1cc(C)nc(NC(N)=S)n1,inactive,–
O=C(CCc1nc(-c2ccccc2)no1)NCc1ccccc1CN1CCOCC1,"inconclusive: 13 µM [inhibitor, single point]",–
COCCCNC(=O)CC1C[C@H](C(=O)N2CCCCC2)[C@@]2(CCc3ccccc3)c3[nH]c4ccc(OC)cc4c3CCN2C1=O (some centres not stated),"inconclusive: 23.1 µM [inhibitor, single point]",–
Cc1ccc(C(=O)N/N=C\c2c(C)nn(-c3ccccc3)c2Cl)cn1,"inconclusive: 23.1 µM [inhibitor, single point]",–
CCOC(=O)c1ccc(-n2c(CN3CCN(CCO)CC3)nc3ccc([N+](=O)[O-])cc3c2=O)cc1,inactive,–
COc1ccc(C(CCNCc2ccc(OC(C)C)cc2)c2ccccc2OC)cc1 (configuration not stated),active: 23.1 µM,–
CC(C)N1CCc2c(sc(NC(=O)Cc3ccccc3)c2C#N)C1,inactive,–
O=C(CCOc1ccccc1)NO,active: 10 µM,–
O=[N+]([O-])c1cnc(N2CCCCC2)c([N+](=O)[O-])c1,inactive,–
CC(NC(=O)C1CCN(CCOc2ccc(Cl)cc2)CC1)c1cccc2ccccc12 (configuration not stated),active: 16.4 µM,–
O=C(CSc1nc(-c2ccccc2F)nc2cc(=O)[nH]n12)Nc1cccc(C(F)(F)F)c1,–,inconclusive: -30.3% [inhibitor]
Cc1nc(C(=O)NCCC(C)C)sc1C1(C)CC(c2cccc([N+](=O)[O-])c2)=NO1 (configuration not stated),"inconclusive: 18.4 µM [inhibitor, single point]",–
CCOc1ccccc1C(=O)NC1CC2CCCC(C1)N2Cc1ccccc1 (configuration not stated),"inconclusive: 29.1 µM [inhibitor, single point]",–
COc1ccccc1NC(=O)Cn1ccn(-c2cccc3ccccc23)c(=O)c1=O,"inconclusive: 29.1 µM [inhibitor, single point]",–
COc1ccccc1NC(=O)c1csc2c1CCC(C)C2 (configuration not stated),"inconclusive: 29.1 µM [inhibitor, single point]",–
COc1ccc(-c2nn(-c3ccccc3)cc2/C=N/N=C(N)N)cc1OC,active: 23.1 µM,–
COc1cc2oc(=O)cc(-c3cccc(-c4cccc(C)c4)c3)c2c(OC)c1OC,"inconclusive: 23.1 µM [inhibitor, single point]",–
Cc1cc(C)cc(OCCCn2c(-c3ccc(Cl)cc3)nc3ccccc3c2=O)c1,inactive,–
CC1(C)CC(NC(=O)Cc2ccccc2)CC(C)(C)N1,inactive,–
CC(C)=CCCC(C)CN1CCC(n2nccc2NC(=O)C2CCCC2)CC1 (configuration not stated),"inconclusive: 29.1 µM [inhibitor, single point]",–
Cc1ccccc1C(=O)NC(=S)NC1CCSC1=O (configuration not stated),inactive,–

Structure (SMILES),Potency,"activity change, negative = growth inhibition"
CCn1nnnc1SCC(=O)Nc1cc(OC)cc(OC)c1,active: 16.4 µM,–
COc1cc(C23CCCN(CCC(C(C)(C)C)C2)C32OCCO2)cc(OC)c1OC (configuration not stated),"inconclusive: 23.1 µM [inhibitor, single point]",–
S=C(Nc1cccnc1)NC1CCCCCCC1,inactive,–
O=C(CCNC(=O)c1ccc([N+](=O)[O-])cc1)Nc1cccc(S(=O)(=O)N2CCCCC2)c1,"inconclusive: 20.6 µM [inhibitor, single point]",–
Cc1ccc(C)c(S(=O)(=O)Nc2ccc3[nH]c(=O)[nH]c3c2)c1,"inconclusive: 14.6 µM [inhibitor, partial curve, poor fit]",–
CCn1c(SCC(=O)Nc2cccc(NC(C)=O)c2)nnc1-c1ccco1,inactive,–
O=C(Cn1cc(C(=O)COc2ccccc2)c2ccccc21)NCc1ccco1,"inconclusive: 18.4 µM [inhibitor, single point]",–
Cc1ccc(C2CC(=O)C=C(Nc3ccc(Cl)cc3)C2)cc1 (configuration not stated),"inconclusive: 25.9 µM [inhibitor, single point]",–
COc1cccc(-c2nc(S(=O)(=O)c3ccccc3)c(N3CCOCC3)o2)c1,"inconclusive: 20.6 µM [inhibitor, single point]",–
Cc1nc(N)[nH]c(=O)c1CCCNc1ccc(CCC2(CCl)OCCO2)cc1,"inconclusive: 16.4 µM [inhibitor, single point]",–
O=C(COC(=O)c1cccnc1Cl)NCCC1=CCCCC1,inactive,–
O=C(COc1ccc(/C=N/NC(=O)c2cc3ccccc3o2)cc1Br)Nc1ccccc1,active: 18.4 µM,–
COCCN(C)C(=O)c1cnn(-c2nccc(-c3cc(OC)ccc3OC)n2)c1C,–,inactive: -0.27% [at 9.04 µM]
CCOC(=O)c1cc(NC(=O)c2ccccc2)c(=O)oc1-c1ccccc1,"inconclusive: 25.9 µM [inhibitor, partial curve]",–
NS(=O)(=O)c1ccc(N2N=C(c3ccccc3)CC2c2cccc(Br)c2)cc1 (configuration not stated),inactive,–
COc1ccc(Cc2nn3c(-c4cc(OC)c(OC)c(OC)c4)nnc3s2)cc1,"inconclusive: 25.9 µM [inhibitor, single point]",–
CCOc1ccccc1C1CC(=O)Nc2c1c(=O)n(C)c(=O)n2C (configuration not stated),inactive,–
COC(=O)c1sc(-c2ccccc2)cc1NC(=O)Nc1ccc(F)cc1,"inconclusive: 25.9 µM [inhibitor, single point]",–
CCOc1ccc(-c2ccc(NS(=O)(=O)c3ccc([N+](=O)[O-])cc3)cc2)nn1,"inconclusive: 29.1 µM [inhibitor, single point]",–
O=C(CSc1nc2ccccc2c(=O)[nH]1)Nc1cccc([N+](=O)[O-])c1,inactive,–
O=C(/C=C/c1ccccc1)Nc1ccc(Cl)cn1,active: 2.59 µM,–
CC1(c2ccc(OC(F)F)cc2)NC(=O)N(CC(=O)Nc2ccc(N3CCCCC3)cc2)C1=O (configuration not stated),"inconclusive: 20.6 µM [inhibitor, partial curve]",–
Cc1cc(C)cc(NC(=O)C2CCCN2S(=O)(=O)c2ccc3nc(-c4ccccc4)[nH]c3c2)c1 (configuration not stated),"inconclusive: 20.6 µM [inhibitor, single point]",–
Cc1ccc(Cl)cc1-n1c(SCC(=O)NCCC2=CCCCC2)nc2n[nH]c(C)c2c1=N,"inconclusive: 23.1 µM [inhibitor, single point]",–

Structure (SMILES),Potency,"activity change, negative = growth inhibition"
O=c1oc2ccccc2c(NC2CCCCC2)c1NS(=O)(=O)c1ccc(Cl)cc1,inactive,–
O=C(NCc1ccccc1C(F)(F)F)C1CC(c2ccc(C(F)(F)F)cc2)=NO1 (configuration not stated),"inconclusive: 20.6 µM [inhibitor, partial curve]",–
N#C/C(=C/c1cn(-c2ccccc2)nc1-c1cccc(S(=O)(=O)N2CCCC2)c1)C(=O)NCc1ccco1,active: 13 µM,–
COc1ccc(OC)c(C(=O)NC(CC(N)=O)c2ccc(NCCN3CCCCC3)c([N+](=O)[O-])c2)c1 (configuration not stated),"inconclusive: 4.61 µM [inhibitor, single point]",–
Cc1oc(-c2ccccc2Cl)nc1CS(=O)CC(=O)N1CCN(c2ccccc2)CC1 (configuration not stated),inactive,–
COc1ccccc1CNC(=O)CN1C(=O)CSc2ccc(S(=O)(=O)N(C)C)cc21,–,inconclusive: -31% [inhibitor]
CC1CC1C(=O)Nc1nc(-c2ccccc2)cs1 (configuration not stated),active: 5.17 µM,–
CCCCC#Cc1cncc(C(=O)N/N=C/c2ccccc2)c1,inactive,–
Cc1c(CC=C(Cl)Cl)c(=O)[nH]c2c(C)cccc12,inactive,–
COCC(=O)N(c1ccccc1)C(C)C(=O)OC (configuration not stated),inactive,–
CCCn1c(NC(=O)C2CCN(S(=O)(=O)c3cccs3)CC2)nc2ccccc21,active: 14.6 µM,–
CCOC(=O)c1c(C)[nH]c(CCC(=O)NCCCN2CCN(c3cc(C)ccc3C)CC2)c1C,active: 4.61 µM,–
COc1ccccc1NC(=O)NCCCN1CCN(c2cccc(Cl)c2)CC1,"inconclusive: 23.1 µM [inhibitor, single point]",–
CCCN1CCN(CCCNC(=O)c2ccc3c(=O)n(CCc4ccccc4)c(=O)[nH]c3c2)CC1,"inconclusive: 23.1 µM [inhibitor, single point]",–
O=C(C[C@H]1C=C[C@H](NC(=O)c2ccccn2)[C@@H](CO)O1)NCc1cc(F)cc(F)c1,inactive,–
CC(=O)NC(C)c1nc2ccccc2n1CC(=O)NC(C)CCc1ccccc1 (configuration not stated),–,inconclusive: -32.1% [inhibitor]
Cc1ccc(S(=O)(=O)N(CC(=O)Nc2ccccc2)C(=O)N2CCN(C)CC2)cc1,inactive,–
O=C(CCNS(=O)(=O)c1ccc2c(c1)CCN2C(=O)C1CC1)N1CCN(c2ccccc2F)CC1,active: 13 µM,–
COc1ccccc1OCC(=O)Nc1ccccc1C(=O)NCc1cccnc1,inactive,–
O=C1C=C(NC2=CC3OC(c4ccccc4)OCC3OC2=O)CCC1 (configuration not stated),active: 8.2 µM,–
CCCCCCCCCCCCCCCC(C)C1=NCCN1 (configuration not stated),"inconclusive: 6.31 µM [inhibitor, partial curve, poor fit]",–
CCn1nc(-c2ccccc2)c(-c2ccccc2)c(C(=O)Nc2nc(C)c(C(=O)N(C)C)s2)c1=O,"inconclusive: 18.4 µM [inhibitor, single point]",–
COC(=O)C1=C(C)N(c2ccc(C)cc2)/C(=C/c2cccs2)C1=O,"inconclusive: 23.1 µM [inhibitor, single point]",–
O=C(CCSCc1ccccc1Cl)N1CCN(c2cccc(Cl)c2)CC1,"inconclusive: 29.1 µM [inhibitor, single point] and inconclusive: 25.9 µM [inhibitor, single point]",–
